Reference: PubChem BioAssay AID360 (National Center for Advancing Translational Sciences (NCATS), 2006)
Screen size: about 48,000 compounds; about 550 (1.1%) were called active. Roughly 4% stayed inconclusive and do not appear here. No stated cut-off is given here; in the data, active means potency below about 15 µM; inconclusive means mostly about 16 µM to 33 µM; inactive means weaker than that. Some of the results follow.
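Further: the screen sought inhibitors.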
Potency means the concentration at half of the fitted maximal effect.

What follows are molecules tested against Lysosomal acid glucosylceramidase (Homo sapiens) (UniProt P04062) (assay: Glucocerebrosidase). Conditions: purified enzyme, resorufin glucoside fluorescence (screen aimed at inhibitors), 20 min.
UniProt P04062, sequence (P04062 whole entry, looked up): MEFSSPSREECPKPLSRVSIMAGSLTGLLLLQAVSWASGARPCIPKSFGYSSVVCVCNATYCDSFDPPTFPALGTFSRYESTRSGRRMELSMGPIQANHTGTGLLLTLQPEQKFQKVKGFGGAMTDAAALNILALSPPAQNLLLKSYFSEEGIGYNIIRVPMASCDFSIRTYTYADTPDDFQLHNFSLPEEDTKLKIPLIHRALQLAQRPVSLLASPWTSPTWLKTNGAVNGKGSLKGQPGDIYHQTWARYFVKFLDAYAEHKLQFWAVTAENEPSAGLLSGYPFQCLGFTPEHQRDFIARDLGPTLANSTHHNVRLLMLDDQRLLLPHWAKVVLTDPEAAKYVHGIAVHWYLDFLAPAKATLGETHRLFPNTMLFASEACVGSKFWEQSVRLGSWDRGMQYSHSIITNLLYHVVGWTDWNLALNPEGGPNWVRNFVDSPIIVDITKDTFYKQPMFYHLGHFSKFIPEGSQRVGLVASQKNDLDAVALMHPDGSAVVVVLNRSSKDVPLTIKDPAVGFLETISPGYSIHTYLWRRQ
Method in brief: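 Normal human glucocerebrosidase (0.2 nM final) was assayed with resorufin β-D-glucopyranoside (30 uM final) in 50mM citric acid/KH2PO4, 10mM sodium taurocholate, 0.01% tween-20, pH 5.9. Compounds were titrated; fluorescence (Ex 548, Em 600) read after 20 min at RT.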
CCOC(=O)C1C(=O)N(C)C2(C)CC1c1cc(OC)ccc1O2 (stereo not drawn) was tested, and the Potency was inactive: > 76.9 µM.
In the case of O=C1NC(=O)C2(Cc3ccccc3N3CCCC32)C(=O)N1c1ccc(Cl)cc1 (stereo not drawn), the Potency is reported as inactive: > 76.9 µM.
O=P(CN1CCN(c2ccccc2)CC1)(N1CCCCC1)N1CCCCC1 was tested, and the Potency was inactive: > 76.9 µM.
For Cn1c(C(=O)N2CCC3(CC2)OCCO3)cc2c(=O)n(C)c3ccccc3c21, the Potency was inactive: > 76.9 µM.
With Cc1cc(N2C(=O)C3CCCN3C2c2ccccc2)no1 (stereo not drawn) the Potency was inactive: > 76.9 µM.
For Cc1cc(CN(C)C)c(OC(=O)N(C)C)cc1C, the Potency was inactive: > 76.9 µM.
In the case of CC(C)OC(=O)C1C(=O)NC2(C)CC1c1ccccc1O2 (stereo not drawn), the Potency is reported as inactive: > 76.9 µM.
With O=C(Cc1ccccc1)N1CCN(C2CCCC2)CC1 the Potency was inactive: > 76.9 µM.
CC(=O)c1c(C)[nH]c(C(=O)N2CCC3(CC2)OCCO3)c1C was tested, and the Potency was inactive: > 76.9 µM.
C=CCn1c(O)c(C(CC)=Nc2ccc(N(CC)CC)cc2)c(=O)[nH]c1=O was tested, and the Potency was inactive: > 76.9 µM.
With Cc1ccc(S(=O)(=O)N2CN3CCN(C3)C2)cc1 the Potency was inactive: > 76.9 µM.
In the case of CCOC(=O)c1ccc(N2C(=O)CC(N3CCC(C#N)(c4ccccc4)CC3)C2=O)cc1 (stereo not drawn), the Potency is reported as inactive: > 76.9 µM.
In the case of COc1cccc(-c2cc(C(F)(F)F)n3nc(C(=O)N4CCC5(CC4)OCCO5)cc3n2)c1, the Potency is reported as inactive: > 76.9 µM.
With CN(Cc1ccccc1)Cc1ccccc1OC(=O)N(C)C the Potency was inactive: > 76.9 µM.
In the case of O=C(c1ccc(CNS(=O)(=O)c2ccccc2)cc1)N1CCC2(CC1)OCCO2, the Potency is reported as inactive: > 76.9 µM.
In the case of CCCCn1c(=O)c(C(=O)Nc2ccccc2S(N)(=O)=O)c(O)c2ccccc21, the Potency is reported as inactive: > 76.9 µM.
In the case of O=P(O)(O)COc1ccccc1O, the Potency is reported as inactive: > 76.9 µM.
For C=CCn1c(O)c(C(C)=Nc2ccc(C(=O)OCC)cc2)c(=O)[nH]c1=O, the Potency was inactive: > 76.9 µM.
With O=C(Cc1ccccc1)N1CCN(C/C=C/c2ccccc2)CC1 the Potency was inactive: > 76.9 µM.
In the case of COc1ccc(OC)c(N2C(=O)NC(=O)C3(Cc4cc(C)ccc4N(C)C3)C2=O)c1 (stereo not drawn), the Potency is reported as inactive: > 76.9 µM.
For O=C(c1ccc(CS(=O)(=O)c2ccccc2)o1)N1CCC2(CC1)OCCO2, the Potency was inactive: > 76.9 µM.
In the case of C=CCN1C(=O)CSc2ccc(C(=O)N3CCC4(CC3)OCCO4)cc21, the Potency is reported as inactive: > 76.9 µM.
For CCS(=O)(=O)N1CCCC(C(=O)N2CCC3(CC2)OCCO3)C1 (stereo not drawn), the Potency was inactive: > 76.9 µM.
In the case of O=c1[nH]c(=O)n(Cc2ccc(F)cc2)c(O)c1C=NCc1cccnc1, the Potency is reported as inactive: > 76.9 µM.
In the case of Cc1nc2nc(C)c(CCC(=O)N3CCC4(CC3)OCCO4)c(C)n2n1, the Potency is reported as inactive: > 76.9 µM.
CCCCn1c(=O)c(C(=O)NCc2ccncc2)c(O)c2ccccc21 was tested, and the Potency was inactive: > 76.9 µM.
With Cc1cc(NC(=O)COC(=O)c2c(C)nn(Cc3ccccc3)c2Cl)no1 the Potency was inactive: > 76.9 µM.
CCC(=O)c1cn(Cc2ccccc2C#N)c2ccccc12 was tested, and the Potency was inactive: > 76.9 µM.
For O=C(NCc1ccc(C(=O)N2CCC3(CC2)OCCO3)cc1)c1ccc2c(c1)OCO2, the Potency was inactive: > 76.9 µM.
For CC(=NCc1cccnc1)c1c(O)n(C2CCCCC2)c(=O)[nH]c1=O, the Potency was inactive: > 76.9 µM.
With O=C(CCS(=O)(=O)c1ccc(Br)cc1)N1CCC2(CC1)OCCO2 the Potency was inactive: > 76.9 µM.
With C(#CCN1CCOCC1)COCC#Cc1ccccc1 the Potency was inactive: > 76.9 µM.
For COC(=O)c1cncn1C(C)c1ccccc1 (stereo not drawn), the Potency was inactive: > 76.9 µM.
For CN1C2CCC1CC(OC(=O)CCN1CCCC1)C2 (stereo not drawn), the Potency was inactive: > 76.9 µM.
In the case of CCCC(=O)Nc1ccc(N2CCN(CC)CC2)c(Cl)c1, the Potency is reported as active: 1.68 µM.
With Cc1oc(-c2ccc(Cl)cc2)nc1CS(=O)CC(=O)N1CCC2(CC1)OCCO2 (stereo not drawn) the Potency was inactive: > 76.9 µM.
With COc1ccc(S(=O)(=O)NC(CC(=O)N2CCC3(CC2)OCCO3)c2ccco2)cc1 (stereo not drawn) the Potency was inactive: > 76.9 µM.
With COC(=O)C1C2c3ccccc3OC1(C)N=c1s/c(=C/c3cnn(C)c3)c(=O)n12 (stereo not drawn) the Potency was inactive: > 76.9 µM.
With O=C(NCC(c1cccnc1)N1CCOCC1)Oc1ccccc1 (stereo not drawn) the Potency was inactive: > 76.9 µM.
In the case of CCC(=Nc1ccc(OC)cc1OC)c1c(O)n(C)c(=O)n(C)c1=O, the Potency is reported as inactive: > 76.9 µM.
In the case of Cc1ccc(OCC(=O)N2CCN(CC3CC4C=CC3C4)CC2)cc1 (stereo not drawn), the Potency is reported as inactive: > 76.9 µM.
For O=C(c1cc(-c2ccncc2)nc2ccccc12)N1CCC2(CC1)OCCO2, the Potency was inactive: > 76.9 µM.
For CCC(=NCCO)c1c(O)n(-c2ccc(Cl)cc2)c(=O)[nH]c1=O, the Potency was inactive: > 76.9 µM.
For CCN1CCN(Cc2nnnn2C(C)(C)C)CC1, the Potency was inactive: > 76.9 µM.
For Cc1cc(C)n2nc(SCC(=O)N3CCC4(CC3)OCCO4)nc2n1, the Potency was inactive: > 76.9 µM.
For CN(C)C1=C(C#N)C(c2ccccc2)=NP(N(C)C)(N(C)C)=N1, the Potency was inactive: > 76.9 µM.
CCCC(C)C1(CC)C(=O)NC(=Nc2ccc(F)cc2)NC1=O (stereo not drawn) was tested, and the Potency was inactive: > 76.9 µM.
CN(C)c1cc(N)c2c(n1)CCC2 (tested in a mixture with another compound) was tested, and the Potency was inactive: > 76.9 µM.
For CCOC(=O)C(C)Oc1cc(C)cc2oc(=O)c3c(c12)CCCC3 (stereo not drawn), the Potency was inactive: > 76.9 µM.
In the case of CCC(=NCc1ccc2c(c1)OCO2)c1c(O)n(C)c(=O)n(C)c1=O, the Potency is reported as inactive: > 76.9 µM.
In the case of CCCC(C)n1[nH]c(=O)c2c1NC(=O)CSC2c1ccc(OC)c(OC)c1 (stereo not drawn), the Potency is reported as inactive: > 76.9 µM.
With O=C(C1CCC(=O)N1C1CCCCC1)N1CCC2(CC1)OCCO2 (stereo not drawn) the Potency was inactive: > 76.9 µM.
For N#Cc1ccccc1Cn1cc(C(=O)C2CC2)c2ccccc21, the Potency was inactive: > 76.9 µM.
Cc1cc(OCC(=O)Nc2cc(C)nn2-c2ccccn2)c2c3c(c(=O)oc2c1)CCC3 was tested, and the Potency was inactive: > 76.9 µM.
With O=c1c2ccccc2[nH]c(=S)n1-c1ccc2c(c1)OCO2 the Potency was inactive: > 76.9 µM.
For Nc1cccc(N=Cc2c(O)n(Cc3ccc(F)cc3)c(=O)[nH]c2=O)c1, the Potency was inactive: > 76.9 µM.
In the case of CCOC(=O)C1CN(C)CCC1=O (stereo not drawn), the Potency is reported as inactive: > 76.9 µM.
In the case of CN1CCC(N(C)c2nc(-c3ccccc3)nc3ccccc23)CC1, the Potency is reported as “inactive”.
In the case of O=C1C2CCCN2C(c2ccc(Cl)cc2)N1c1ccccn1 (stereo not drawn), the Potency is reported as inactive: > 76.9 µM.
With COCCOC(=O)c1c(C)oc2ccc(OC(=O)N(C)C)cc12 the Potency was inactive: > 76.9 µM.
In the case of CS(=O)(=O)N1CCCC(C(=O)N2CCC3(CC2)OCCO3)C1 (stereo not drawn), the Potency is reported as inactive: > 76.9 µM.
With O=C(Cc1ccccc1)OCn1nnc2ccccc2c1=O the Potency was inactive: > 76.9 µM.
For COc1ccc(CCn2c(O)c(C=NCCCN(C)C)c(=O)[nH]c2=O)cc1OC, the Potency was inactive: > 76.9 µM.
CCCNS(=O)(=O)c1ccc(OCC(=O)N2CCN(Cc3ccccc3)CC2)cc1 was tested, and the Potency was inactive: > 76.9 µM.
For O=C1NC(=O)N(Cc2ccccc2Cl)C(=O)/C1=C/N1CCOCC1, the Potency was inactive: > 76.9 µM.
O=C(CCC(=O)N1CCC2(CC1)OCCO2)Nc1nnc(C(F)(F)F)s1 was tested, and the Potency was inactive: > 76.9 µM.
For CCC(=NCCCO)c1c(O)n(-c2ccc(OC)cc2)c(=O)[nH]c1=O, the Potency was inactive: > 76.9 µM.
COc1ccc(N2C(=O)CC(=O)NC2=O)cc1 was tested, and the Potency was inactive: > 76.9 µM.
With O=C(C1CC(=O)N(C2CCCCC2)C1)N1CCC2(CC1)OCCO2 (stereo not drawn) the Potency was inactive: > 76.9 µM.
CCOP(=O)(C#CC(C)(C)C)C(C)(O)c1ccccc1 (stereo not drawn) was tested, and the Potency was inactive: > 76.9 µM.
In the case of C=CCn1c(O)c(C=Nc2ccc(OC)cc2C)c(=O)[nH]c1=O, the Potency is reported as inactive: > 76.9 µM.
For CN(C)C1=NP(N(C)C)(N(C)C)=NC(c2ccccc2)=N1, the Potency was inactive: > 76.9 µM.
NC(=O)OCCSc1nnc(-c2cccc(C(N)=S)c2)o1 was tested, and the Potency was inactive: > 76.9 µM.
For O=C(C1CC(c2ccc(Cl)c(Cl)c2)=NO1)N1CCC2(CC1)OCCO2 (stereo not drawn), the Potency was inactive: > 76.9 µM.
O=C(c1csc2c1CCCCC2)N1CCC2(CC1)OCCO2 was tested, and the Potency was inactive: > 76.9 µM.
In the case of O=C(C1CCCN(c2nnc(-n3cccc3)s2)C1)N1CCC2(CC1)OCCO2 (stereo not drawn), the Potency is reported as inactive: > 76.9 µM.
CN(C)CCN=Cc1c(O)n(-c2cccc3ccccc23)c(=O)[nH]c1=O was tested, and the Potency was inactive: > 76.9 µM.
In the case of O=C(c1cc2nc(-c3ccccc3)cc(-c3ccccc3)n2n1)N1CCC2(CC1)OCCO2, the Potency is reported as inactive: > 76.9 µM.
With CCn1c(O)c(C=NCCc2c[nH]c3ccccc23)c(=O)[nH]c1=O the Potency was inactive: > 76.9 µM.
With CC(N)Cc1c[nH]c2cc3c(cc12)OCCO3 (stereo not drawn) the Potency was inactive: > 76.9 µM.
COC(=O)c1cc2c(s1)=NC=NP=2(N1CCOCC1)N1CCOCC1 was tested, and the Potency was inactive: > 76.9 µM.
With CCC(=NCc1ccco1)c1c(O)n(-c2ccccc2)c(=O)[nH]c1=O the Potency was inactive: > 76.9 µM.
In the case of CCN1c2nc3ccccn3c(=O)c2CC2(C(=O)N(C)C(=O)N(C)C2=O)C1C (stereo not drawn), the Potency is reported as inactive: > 76.9 µM.
In the case of O=C(C(Cc1ccccc1)NS(=O)(=O)c1ccc(F)cc1)N1CCC2(CC1)OCCO2 (stereo not drawn), the Potency is reported as inactive: > 76.9 µM.
For O=C(C1CCN(S(=O)(=O)N2CCOCC2)CC1)N1CCC2(CC1)OCCO2, the Potency was inactive: > 76.9 µM.
With CC(=NCCC1=CCCCC1)c1c(O)[nH]c(=O)[nH]c1=O the Potency was inactive: > 76.9 µM.
With COc1ccc(OC)c(-n2c(O)c(C=NCc3ccc4c(c3)OCO4)c(=O)[nH]c2=O)c1 the Potency was inactive: > 76.9 µM.
CCCCn1c(O)c(C(C)=NCCCN(CC)CC)c(=O)[nH]c1=O was tested, and the Potency was inactive: > 76.9 µM.
